Like-named read-outs stand apart in the source and are kept apart here. Blank lines part the entries; values can stand above or below the binder they belong to.
Experiments:
[1] = target: T1, IL-18R on HEK-Blue IL18R reporter cells (UniProt Q13478 19-541; O95256 20-599); test: cell-based or functional assay
T1 sequence (looked up) 1: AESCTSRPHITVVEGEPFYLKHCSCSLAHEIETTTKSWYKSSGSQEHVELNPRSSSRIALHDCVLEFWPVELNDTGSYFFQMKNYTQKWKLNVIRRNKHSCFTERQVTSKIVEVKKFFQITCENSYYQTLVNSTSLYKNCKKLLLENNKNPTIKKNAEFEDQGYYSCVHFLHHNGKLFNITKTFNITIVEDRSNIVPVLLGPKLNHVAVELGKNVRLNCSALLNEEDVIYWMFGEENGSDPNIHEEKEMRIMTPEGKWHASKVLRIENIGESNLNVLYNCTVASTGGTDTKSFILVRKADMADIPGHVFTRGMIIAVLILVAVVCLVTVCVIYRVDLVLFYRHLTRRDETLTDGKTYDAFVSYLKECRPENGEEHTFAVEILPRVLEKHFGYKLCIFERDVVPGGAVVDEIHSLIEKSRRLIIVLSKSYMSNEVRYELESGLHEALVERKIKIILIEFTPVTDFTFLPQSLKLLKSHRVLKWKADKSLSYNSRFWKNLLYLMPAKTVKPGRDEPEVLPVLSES
T1 sequence (looked up) 2: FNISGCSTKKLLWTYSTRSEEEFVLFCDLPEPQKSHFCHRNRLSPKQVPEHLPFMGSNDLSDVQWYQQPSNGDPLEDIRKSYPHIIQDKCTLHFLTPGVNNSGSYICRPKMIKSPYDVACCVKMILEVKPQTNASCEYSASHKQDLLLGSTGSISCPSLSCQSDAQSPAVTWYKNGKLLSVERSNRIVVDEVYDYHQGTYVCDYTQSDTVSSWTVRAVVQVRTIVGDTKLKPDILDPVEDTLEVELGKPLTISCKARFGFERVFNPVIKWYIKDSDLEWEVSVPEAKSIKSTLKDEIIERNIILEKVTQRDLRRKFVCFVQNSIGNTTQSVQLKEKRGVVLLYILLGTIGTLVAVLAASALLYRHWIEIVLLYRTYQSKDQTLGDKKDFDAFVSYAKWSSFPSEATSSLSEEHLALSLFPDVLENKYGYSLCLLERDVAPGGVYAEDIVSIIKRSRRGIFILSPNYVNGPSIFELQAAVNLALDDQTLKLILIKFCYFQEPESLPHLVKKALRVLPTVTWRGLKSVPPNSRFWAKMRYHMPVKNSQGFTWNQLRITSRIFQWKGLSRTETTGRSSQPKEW

[2] = target: human PD-1 on Jurkat T cells (human, UniProt Q15116 25-288); test: cell-based or functional assay
[3] = target: T2, recombinant Human Fc gamma RI/CD64 Protein (human, UniProt P12314 16-288); test: ELISA; antibody coated, His-tagged receptor titrated
T2 construct: also called FcγRI/(CD64); human Fc gamma receptor I

[4] = target: T3, recombinant Human Fc gamma RIIA/CD32a (H167) Protein (human, UniProt P12318 36-218, limits assumed); test: as above
T3 construct: also called FcγRIIa (CD32a)
T3 sequence (looked up): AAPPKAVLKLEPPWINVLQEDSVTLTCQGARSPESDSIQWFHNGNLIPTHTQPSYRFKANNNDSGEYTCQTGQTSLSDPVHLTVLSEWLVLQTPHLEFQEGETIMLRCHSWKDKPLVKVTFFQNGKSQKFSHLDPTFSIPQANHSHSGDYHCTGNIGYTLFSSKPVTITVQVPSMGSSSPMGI

[5] = target: T4, recombinant Human Fc gamma RIIIA/CD16a Protein (human, UniProt P08637 partial chain, limits assumed); test: as above
T4 construct: also called FcγRIIIa (CD16)

[6] = target: T5, recombinant Human Fc gamma RIIB/CD32b Avi-tag Protein (human, UniProt P31994 46-217); test: as above
T5 construct: also called FcγRIIb (CD32b)
T5 sequence (looked up): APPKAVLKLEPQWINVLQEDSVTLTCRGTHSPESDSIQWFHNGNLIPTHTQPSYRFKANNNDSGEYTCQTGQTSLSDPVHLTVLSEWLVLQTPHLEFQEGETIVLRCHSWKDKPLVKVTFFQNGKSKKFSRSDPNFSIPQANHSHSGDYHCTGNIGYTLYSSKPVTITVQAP

[7] = target: T6, Biotinylated Recombinant Human PD-1/CD279-Fc Chimera (human, UniProt Q15116 partial chain, biotinylated); test: ELISA; antibody coated, biotinylated human PD-1-Fc titrated
T6 construct: Bought (Biolegend #789406); also called recombinant biotinylated human PD-1

His-tagged human PD1 [8] = target: T7, His-tagged human PD1 (human, UniProt Q15116 partial chain); test: BLI (Octet); antibody on AHC sensor, His-tagged human PD1 as analyte
T7 construct: Bought (R&D #8986-PD)

[9] = target: T2, recombinant Human Fc gamma RI/CD64 …; test: ELISA: immunocytokine coated (2.5 µg/ml), His-tagged recombinant human FcγRI/CD64 titrated (x-axis), anti-His-HRP/TMB, 450 nm
[10] = target: T6, Biotinylated Recombinant Human …; test: ELISA: immunocytokine coated on the plate (5 µg/ml), biotinylated human PD-1-Fc titrated (x-axis), streptavidin-HRP/TMB, 450 nm
[11] = target: T1, IL-18R on HEK-Blue IL18R reporter cells; test: cell-based or functional assay; remark: listed apart in the source
[12] = target: T6, Biotinylated Recombinant Human …; test: ELISA; antibody coated, biotinylated human PD-1-Fc titrated; remark: listed apart in the source
His-tagged human PD1 [13] = target: T7, His-tagged human PD1; test: BLI (Octet); antibody on AHC sensor, His-tagged human PD1 as analyte; remark: listed apart in the source
T7 sequence (Q15116 25-167 limits assumed): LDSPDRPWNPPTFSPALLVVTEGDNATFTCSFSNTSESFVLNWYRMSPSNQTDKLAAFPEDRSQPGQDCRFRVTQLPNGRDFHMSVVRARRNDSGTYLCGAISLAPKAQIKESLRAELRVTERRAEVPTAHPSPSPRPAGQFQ

T2 sequence (P12314 16-288 limits assumed): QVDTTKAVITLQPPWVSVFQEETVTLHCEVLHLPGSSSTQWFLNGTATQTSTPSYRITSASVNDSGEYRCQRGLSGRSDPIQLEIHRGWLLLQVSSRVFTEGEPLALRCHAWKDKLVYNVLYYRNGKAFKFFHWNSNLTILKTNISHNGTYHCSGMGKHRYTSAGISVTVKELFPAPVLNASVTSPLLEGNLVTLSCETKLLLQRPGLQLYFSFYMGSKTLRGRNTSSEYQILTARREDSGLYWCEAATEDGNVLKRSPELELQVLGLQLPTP
T4 sequence (P08637 17-208 limits assumed): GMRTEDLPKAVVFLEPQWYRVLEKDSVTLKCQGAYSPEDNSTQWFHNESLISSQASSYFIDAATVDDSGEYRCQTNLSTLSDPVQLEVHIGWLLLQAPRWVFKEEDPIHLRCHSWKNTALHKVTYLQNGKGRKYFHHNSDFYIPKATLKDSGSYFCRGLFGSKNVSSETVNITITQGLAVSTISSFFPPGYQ

EC50, HEK-Blue IL18R SEAP reporter [1]: 0.00072 nM
B1: IL-18 polypeptide SEQ ID NO: 39 (E06K, K53A) (ligand)
chain: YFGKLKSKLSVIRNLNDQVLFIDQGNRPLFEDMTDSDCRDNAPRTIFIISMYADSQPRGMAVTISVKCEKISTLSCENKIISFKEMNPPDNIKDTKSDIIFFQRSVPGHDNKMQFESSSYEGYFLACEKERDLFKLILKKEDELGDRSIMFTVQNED

EC50 (read off the curve) [2]: ~3 nM | Kd [3]: 0.25 nM | Kd [4]: 1890 nM | Kd [5]: 598 nM | Kd [6]: 436 nM | Kd [7]: 0.0467 nM | Kd (His-tagged human PD1 [8]): 11.5 nM | koff (His-tagged human PD1 [8]): 0.00479 s⁻¹ | kon (His-tagged human PD1 [8]): 454000 M⁻¹ s⁻¹ | EC50 (read off the curve) [9]: ~0.3 nM | EC50 (read off the curve) [10]: ~0.07 nM
B2: Composition A (LZM-009 conjugated to IL-18 polypeptide SEQ ID NO: 30) (other)
heavy: QVQLVQSGAEVKKPGASVKVSCKASGYTFTSYYMYWVRQAPGQGLEWMGGVNPSNGGTNFNEKFKSRVTITADKSTSTAYMELSSLRSEDTAVYYCARRDYRYDMGFDYWGQGTTVTVSSASTKGPSVFPLAPCSRSTSESTAALGCLVKDYFPEPVTVSWNSGALTSGVHTFPAVLQSSGLYSLSSVVTVPSSSLGTKTYTCNVDHKPSNTKVDKRV[human IgG4 Fc with S228P (EU numbers) omitted]
light: EIVLTQSPATLSLSPGERATISCRASKGVSTSGYSYLHWYQQKPGQAPRLLIYLASYLESGVPARFSGSGSGTDFTLTISSLEPEDFATYYCQHSRELPLTFGTGTKVEIKRTVAAPSVFIFPPSDEQLKSGTASVVCLLNNFYPREAKVQWKVDNALQSGNSQESVTEQDSKDSTYSLSSTLTLSKADYEKHKVYACEVTHQGLSSPVTKSFNRGEC
chain: YFGKLKSKLSIIRNLNDQVLFIDQGNRPLFEDMTDSDARDNAPRTIFIISMYADSQPRGMAVAISVKCEKISTLSAENKIISFKEMNPPDNIKDTKSDIIFFQRSVPGHDNKMQFESSSYEGYFLAAEKERDLFKLILKKEDELGDRSIMFTVQNED
modifications: chemically linked to antibody Fc K248; point of attachment in the exemplary protocol is C68; chemical linker to the IL-18 polypeptide on residue K248 of the Fc region (EU numbering) of one heavy …

EC50 (read off the curve) [11]: ~0.08 pM | Kd [12]: 0.0702 nM | Kd (His-tagged human PD1 [13]): 39 nM | koff (His-tagged human PD1 [13]): 0.00895 s⁻¹ | kon (His-tagged human PD1 [13]): 230000 M⁻¹ s⁻¹
B3: CMP2002 (other)
heavy: QVQLVQSGAEVKKPGASVKVSCKASGYTFTSYYMYWVRQAPGQGLEWMGGVNPSNGGTNFNEKFKSRVTITADKSTSTAYMELSSLRSEDTAVYYCARRDYRYDMGFDYWGQGTTVTVSSASTKGPSVFPLAPCSRSTSESTAALGCLVKDYFPEPVTVSWNSGALTSGVHTFPAVLQSSGLYSLSSVVTVPSSSLGTKTYTCNVDHKPSNTKVDKRV[human IgG4 Fc with S228P (EU numbers) omitted]
light: YFGKLKSKLSIIRNLNDQVLFIDQGNRPLFEDMTDSDARDNAPRTIFIISMYADSQPRGMAVAISVKCEKISTLSAENKIISFKEMNPPDNIKDTKSDIIFFQRSVPGHDNKMQFESSSYEGYFLAAEKERDLFKLILKKEDELGDRSIMFTVQNEDGGGGSGGGGSGGGGSEIVLTQSPATLSLSPGERATISCRASKGVSTSGYSYLHWYQQKPGQAPRLLIYLASYLESGVPARFSGSGSGTDFTLTISSLEPEDFATYYCQHSRELPLTFGTGTKVEIKRTVAAPSVFIFPPSDEQLKSGTASVVCLLNNFYPREAKVQWKVDNALQSGNSQESVTEQDSKDSTYSLSSTLTLSKADYEKHKVYACEVTHQGLSSPVTKSFNRGEC
notes: expressed in CHO K1 cells

From US20250188166A1 (BRIGHT PEAK THERAPEUTICS, published 2025)
